This note sets out measurements from US11999716B2, “WDR5 inhibitors and modulators” (priority 2018, dated 2024).

Each structure is given as a SMILES string.

The experiment has as its target WDR5 (Homo sapiens, UniProt P61964). Kind of experiment: biochemical. In kind it is binding. The conditions noted are these: WDR5-His tag (Δ23, residues 24-334) 2 nM; 10mer-Thr-FAM probe 150 nM; Tb-anti-HIS 1 nM; 60 min, room temperature; read-out: Ki for Inhibition of WDR5 by TR-FRET assay. (In general: TR-FRET usually uses a lanthanide donor and a delayed reading to cut background.)

As usually defined, the Ki is a dissociation constant, usually derived from enzyme kinetics or from competition with a known ligand. `COc1ccnc([C@H](C2CC2)N2CCc3c(cc(Cn4ccnc4)cc3-c3cn(C)nc3C(F)(F)F)C2=O)c1` [Example 252, (S)-7-((1H-Imidazol-1-yl)methyl)-2-(cyclopropyl(4-methoxypyridin-2-yl)methyl)-5-(1-methyl-3-(trifluoromethyl)-1H-pyrazol-4-yl)-3,4-dihydroisoquinolin-1(2H)-one]: the Ki was less than 0.05 nM. As to `CCn1cc(-c2cc(Cn3ccn(C(F)F)c3=N)cc3c2CCN([C@@H](C)c2cc(OC)ccn2)C3=O)c(C(F)(F)F)n1` [Example 67, (S)-7-((3-(Difluoromethyl)-2-imino-2,3-dihydro-1H-imidazol-1-yl)methyl)-5-(1-ethyl-3-(trifluoromethyl)-1H-pyrazol-4-yl)-2-(1-(4-methoxypyridin-2-yl)ethyl)-3,4-dihydroisoquinolin-1(2H)-one], the Ki is less than 0.05 nM. For `CCn1cc(-c2cc(CN3CCN(C)C3=N)cc3c2CCN(Cc2cc(OC)ccn2)C3=O)c(C(F)(F)F)n1` [Example 55, 5-(1-Ethyl-3-(trifluoromethyl)-1H-pyrazol-4-yl)-7-((2-imino-3-methylimidazolidin-1-yl)methyl)-2-((4-methoxypyridin-2-yl)methyl)-3,4-dihydroisoquinolin-1(2H)-one], the Ki is less than 0.05 nM. Consider `Cc1nccn1Cc1cc2c(c(-c3cn(C)nc3C(F)(F)F)c1)CCN(Cc1ccccn1)C2=O` [Example 180, 7-((2-Methyl-1H-imidazol-1-yl)methyl)-5-(1-methyl-3-(trifluoromethyl)-1H-pyrazol-4-yl)-2-(pyridin-2-ylmethyl)-3,4-dihydroisoquinolin-1(2H)-one], for which the Ki was found to be 0.22 nM. On to `COc1ccnc(CN2CCc3c(cc(Cn4ccn(C)c4=N)cc3-c3ccc(F)cc3C)C2=O)c1` [Example 52, 5-(4-fluoro-2-methylphenyl)-7-((2-imino-3-methyl-2,3-dihydro-1H-imidazol-1-yl)methyl)-2-((4-methoxypyridin-2-yl)methyl)-3,4-dihydroisoquinolin-1(2H)-one], for which the Ki was less than 0.05 nM. With `COc1cc(CN2CCc3c(cc(Cn4ccn(C)c4=N)cc3-c3nc(C)cn3C)C2=O)cc(OC)c1` [Example 153, 2-(3,5-Dimethoxybenzyl)-5-(1,4-dimethyl-1H-imidazol-2-yl)-7-((2-imino-3-methyl-2,3-dihydro-1H-imidazol-1-yl)methyl)-3,4-dihydroisoquinolin-1(2H)-one] the figure was 0.37 nM; with `Cc1ccnc([C@H](C2CC2)N2CCc3c(cc(Cn4ccnc4C)cc3-c3ccc(F)cc3C)C2=O)c1` [Example 12, (S)-2-(Cyclopropyl(4-methylpyridin-2-yl)methyl)-5-(4-fluoro-2-methylphenyl)-7-((2-methyl-1H-imidazol-1-yl)methyl)-3,4-dihydroisoquinolin-1(2H)-one], less than 0.05 nM. As for `COc1cc(CN2CCc3c(cc(Cn4cnn(C)c4=N)cc3-c3ccc(C)nc3C)C2=O)cc(OC)c1` [Example 127, 2-(3,5-Dimethoxybenzyl)-5-(2,6-dimethylpyridin-3-yl)-7-((5-imino-1-methyl-1,5-dihydro-4H-1,2,4-triazol-4-yl)methyl)-3,4-dihydroisoquinolin-1(2H)-one], the Ki amounted to 0.098 nM. The same measure for `Cc1cc([C@H](C2CC2)N2CCc3c(cc(Cn4ccn(C)c4=N)cc3-c3ccc(F)cc3C)C2=O)ccc1F` [Example 32, (S)-2-(Cyclopropyl(4-fluoro-3-methylphenyl)methyl)-5-(4-fluoro-2-methylphenyl)-7-((2-imino-3-methyl-2,3-dihydro-1H-imidazol-1-yl)methyl)-3,4-dihydroisoquinolin-1(2H)-one]: 0.06 nM; for `Cc1nccn1Cc1cc2c(c(-c3cn(C)nc3C(F)(F)F)c1)CCN(Cc1cc(Cl)cc3ccccc13)C2=O` [Example 225, 2-((3-Chloronaphthalen-1-yl)methyl)-7-((2-methyl-1H-imidazol-1-yl)methyl)-5-(1-methyl-3-(trifluoromethyl)-1H-pyrazol-4-yl)-3,4-dihydroisoquinolin-1(2H)-one]: less than 0.05 nM.
